Where “and” joins values, the source holds several entries; their conditions need not be identical. Equal values may be shown once. In all, about 340,000 compounds went through this assay and about 6,900 (2%) were called active. Cut-off read from the data, not from the text of the source: active = inhibition above about 30%; inactive = below that, where a call was filed. The list shows a part of the results, in another mix than the full data. Entries without a call were filed so in the source.
The molecules below were run against D(2) dopamine receptor (Homo sapiens) (UniProt P14416) (assay: HTS Assay for Allosteric Antagonists of the Human D2 Dopamine Receptor: Primary Screen for Antagonists). Settings: HEK293 TREx D2 cells, calcium flux, dopamine EC80; at 10 µM; stronger effect = higher value.
Sequence of UniProt P14416 (P14416 whole entry, looked up): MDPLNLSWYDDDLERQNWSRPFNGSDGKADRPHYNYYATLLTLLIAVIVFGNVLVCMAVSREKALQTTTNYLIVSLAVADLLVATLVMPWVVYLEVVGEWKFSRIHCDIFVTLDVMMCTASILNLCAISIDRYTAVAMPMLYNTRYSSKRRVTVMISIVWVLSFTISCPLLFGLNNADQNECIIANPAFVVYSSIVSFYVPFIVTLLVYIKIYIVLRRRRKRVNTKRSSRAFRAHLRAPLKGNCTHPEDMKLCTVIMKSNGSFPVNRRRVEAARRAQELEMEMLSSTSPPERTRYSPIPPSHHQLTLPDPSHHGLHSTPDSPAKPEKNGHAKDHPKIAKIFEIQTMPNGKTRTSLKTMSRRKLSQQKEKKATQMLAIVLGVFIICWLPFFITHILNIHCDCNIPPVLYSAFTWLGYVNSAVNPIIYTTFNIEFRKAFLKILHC
Outline: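 Measurement of antagonist activity uses fluorescent calcium dye in inducible HEK293 T-REx D2 cells: 10 s baseline, compound addition with 180 s read, EC80 dopamine addition with a further 180 s read.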
Note: 0% is about no effect.

Structure (SMILES)	inhibition
OC(CNCCc1ccc(C(F)(F)F)cc1)COC(c1ccccc1)c1ccccc1 (configuration not stated)	active: 31%
Cc1cc2c(cc1S(=O)(=O)NCc1ccc(N(C)C)cc1)OCC(=O)N2	-28.5%
COc1ccc(N(CC(=O)NC(C)c2ccccc2)S(=O)(=O)c2c(C)noc2C)cc1 (configuration not stated)	11.7%
CCCN(C(=O)c1cc2c(s1)-c1ccccc1SC2)c1ccccc1F	-2.41%
CC1(c2ccc(Cl)cc2)CC(C)(C)N(C(=O)c2ccccc2)c2ccccc21 (configuration not stated)	5.34%
Cc1ccc(OCc2nc3ccccc3n2CC(C)C)cc1	7.02%
COc1ccc(CCNC(=O)CCn2c(=O)c3cccn3c3ccc(F)cc32)c(OC)c1OC	5.57%
Cc1nn2c(NCc3ccccn3)c3c(nc2c1-c1ccccc1)CCC3	active: 40.2%
CCOc1ccccc1CNC(=O)Nc1cn(CC(C)C)c(=O)c2ccccc12	-8.28%
CCc1ccc(NC(=O)Cn2cnc3sc(C)c(S(=O)(=O)N4CCC(C)CC4)c3c2=O)cc1	9.8%
CCCC(=O)NCC(c1ccc2c(c1)OCO2)N1CCN(c2ccc(F)cc2)CC1 (configuration not stated)	11.6%
COc1ccc(-n2ncc(C(=O)NCc3ccccc3)c2C2CCN(C(=O)OC(C)(C)C)CC2)cc1	-2.34%
COc1ccc(-c2nc3c(C#N)c[nH]n3c2NC2CCCCC2)c(OC)c1	20.1%
Cc1ccc2[nH]c3nc(N/N=C/c4cccc(O)c4)nnc3c2c1	active: 36.7%
CCOC(=O)c1c(C)[nH]c(N=Nc2ccccc2)c1C	active: 67.1%
CCOC(=O)C1CCN(C(=O)C2COc3ccccc3C2)CC1 (configuration not stated)	1.14%
Cc1ccc(OCCCn2c(C3CC(=O)N(c4cccc(Cl)c4)C3)nc3ccccc32)c(C)c1 (configuration not stated)	0.789%
COc1cc(CC(=O)N/N=C/c2ccccc2)c([N+](=O)[O-])cc1OC	active: 77%
CN1/C(=C\C=C2/C(=O)Oc3ccccc3C2=O)C(C)(C)c2ccccc21	active: 68.1%
O=C(CSc1nccn1Cc1ccc(Cl)cc1)NC1CCCC1	-0.458%
Cc1ccc(CN2CCSc3ccc(C(=O)N4CCN(c5cccc(C)c5C)CC4)cc32)cc1	3.42%

Structure (SMILES)	inhibition
O=C(c1cc2ccccc2oc1=O)N(Cc1cccc(Cl)c1)C1CCS(=O)(=O)C1 (configuration not stated)	13.5%
CC(=O)c1ccc(N2CCN(C(=O)C3CCN(S(=O)(=O)c4cccc5nonc45)CC3)CC2)cc1	4.81%
O=c1c2c3c(sc2nnn1Cc1ccc(Br)cc1)CCCC3	4.88%
O=S(=O)(NCCc1csc(-c2ccc(F)cc2)n1)c1ccc(Cl)cc1	23.8%
CCOC(=O)c1ccc(NC(=O)CCc2c(C)nc3c(c(C)nn3C)c2C)cc1	-2.73%
CCOc1ccccc1NC(=O)Cn1c(=O)ccc2cc(S(=O)(=O)N3CCC(C)CC3)ccc21	-2.67%
CCN(C(=O)Cc1c(C(=O)O)[nH]c2ccccc12)c1ccc(OC)cc1	2.34% and active: 53.3%
Cc1ccc(Cl)cc1NC(=O)c1ccc(-c2nc(CSc3ccccc3)c(C)o2)cc1	10.2%
CCC(=O)N1c2ccccc2CC1C(=O)N1CCN(c2ccccc2)CC1 (configuration not stated)	-2.79%
CCc1ccc(CN(C(=O)c2nc(SC)ncc2Cl)C2CCS(=O)(=O)C2)cc1 (configuration not stated)	-7.27%
CC(C)Cc1nn2c(=O)cc(COC(=O)c3ccc(NC(=O)c4cccs4)cc3)nc2s1	0.716%
CCOC(=O)c1ccc(NC(=O)CC2C(=O)N(c3ccccc3)C(=O)N2Cc2cccs2)cc1 (configuration not stated)	-1.06%
Cc1ccc2c(CNCCc3ccc(Cl)cc3)c(C(=O)O)n(Cc3ccc(F)cc3)c2c1	-0.572%
COc1ccc(N2CCN(CC(O)COc3ccc(C(C)(C)C)cc3)CC2)cc1 (configuration not stated)	9.36%
Cc1ccc(S(=O)(=O)c2[nH]c(-c3ccccc3)nc2SCC(=O)O)cc1	15.1%
O=C(CCNC(=O)N1CC(=O)Nc2ccccc21)NCc1ccc(F)cc1	active: 51.6%
O=c1c2sc3ccccc3c2n(Cc2ccccc2)c(=O)n1Cc1ccccc1	0.11%
CCOc1ccc(CNC(=O)c2ccc3nc(Cc4ccc(OC)cc4)oc3c2)cc1OC	3.01%
CCOC(=O)C1CCCN(S(=O)(=O)c2ccc3[nH]c(=O)ccc3c2)C1 (configuration not stated)	-24%
Cc1ccc(S(=O)(=O)NCc2nc3nc(C)cc(C)n3n2)c(C)c1	5.74%
CCCC(=O)Nc1ccc(C(=O)COC(=O)c2cc(C)oc2C)cc1	active: 34.8%

Structure (SMILES)	inhibition
CCOC(=O)c1ccccc1NC(=O)CSc1nc2ncccc2[nH]1	-1.31%
CCN1c2ccccc2-c2nc(SCC(=O)Nc3ccc(C)c(Cl)c3)ncc2S1(=O)=O	4.09%
COc1ccc(N2CCN(C(=O)CCS(=O)(=O)c3cc4c(cc3Cl)NC(=O)CO4)CC2)cc1	8.01%
CC(=O)c1cc(C(=O)Nc2cccc(C)c2)c2ccccn12	-3.62%
COc1ccc(-c2nnn3c2nc(N2CCCC(C)C2)c2ccccc23)cc1 (configuration not stated)	-7.63%
Cc1ccc(C)c(N(C)C(=O)C2CCN(S(=O)(=O)c3cccc4nsnc34)CC2)c1	-0.934%
Cc1noc(-c2ccccc2OCC(=O)Nc2cccc([N+](=O)[O-])c2)n1	2.39%
CC(=O)c1ccc(N2CCN(C(=O)NCc3noc4ccc(C)cc34)CC2)cc1	-14%
Cc1ccccc1NC(=O)CC1C(=O)NCCN1C(=O)c1cccc(Cl)c1 (configuration not stated)	-5.49%
COC(=O)CCc1sc(Nc2ccc(OC)cc2)nc1-c1ccc(OC)cc1	-11.6%
Cc1ccc2cc(CN(CC3CCCO3)C(=S)NCc3ccco3)c(=O)[nH]c2c1C (configuration not stated)	active: 33.2%
Cc1cc(C)cc(NC(=O)C2CCN(S(=O)(=O)c3cccc4nonc34)CC2)c1	4.75%
COc1ccc(CNC(=O)Nc2cn(CC(C)C)c(=O)c3ccccc23)c(OC)c1	-11.4%
O=C(Nc1ccccc1N1CCN(C(=O)c2ccccc2)CC1)c1cc2ccccc2o1	active: 62.9%
CCCn1cc(SCC(N)=O)c2ccccc21	active: 31.1%
CC(C)=CCN1CCN(Cc2cccn2-c2ccccn2)CC1CCO (configuration not stated)	active: 98.6%
CCC(Oc1ccccc1)C(=O)Nc1nnc(S(=O)(=O)Nc2ccccc2)s1 (configuration not stated)	-21.8%
CCc1ccc(CNC(=O)c2ccc(CSc3nc4ccncc4n3Cc3ccccc3)cc2)cc1	-6.72%
COCCNC(=O)CCC(=O)NNc1nc2ccccc2c2nc(-c3ccccc3)nn12	9.32%
CCOc1ccccc1OCCCNCc1ccccc1	active: 50%
